Reference: PubChem BioAssay AID2060342 (Molecular Pharmacology Branch, DTP, NCI, 2025)
Certain results were filed several times, with different values. The other results are left out here. There may be further records. Results that share an entry are repeated measurements (runs, samples, wells, individuals or studies). Marks such as (2×) stand for listed records that agree.

Test system: 171881-019-R-J1-PDC multicell spheroid viability
Assay: Anticancer human tumor 171881-019-R-J1-PDC patient-derived invasive breast carcinoma cell line growth inhibition [IpAb]
Conditions: stronger effect = lower value
Source text: Combinatorial screen of targeted agents with ipatasertib and abemaciclib in multi-cell type tumor spheroids
A high-throughput screen of multi-cell type tumor spheroids was designed to identify active combinations of targeted small molecules and ipatasertib or abemaciclib. Complex spheroids include a stromal component modeled by human endothelial cells (HUVEC) and fibroblasts modeled by human mesenchymal stem cells (MSCs). The concentration ranges selected for each drug and investigational agent were based upon clinically achievable concentrations if the clinical Cmax of the agent was known.
Compounds. The drugs and investigational agents: ipatasertib (NSC767898), abemaciclib(NSC768073), selumetinib (NSC741078), trametinib (758246), adavosertib (NSC754352), everolimus (NSC733504), sapanisertib (NSC764658), vemurafenib (NSC761431), venetoclax (NSC766270), copanlisib (NSC809693), apelisib (NSC765974), palbociblib (NSC758247), vemurafenib (NSC761431), dabrafenib (NSC764134), ravoxertinib (NSC781343), BMS-387032 (NSC767048), sotorasib (NSC818433), talazoparib (NSC767125) and afursertib (NSC778305), were obtained from the National Cancer Institute (NCI) Developmental Therapeutics Program Chemical Repository. The FDA-approved anticancer drug set is available from the NCI Developmental Therapeutics Program. […] The stock solutions were prepared in dimethyl sulfoxide (DMSO, Sigma-Aldrich, St. Louis, MO, cat. D2650) at 800-fold the tested concentration and stored at -70 degrees C prior to their use. All drugs and investigational agents were tested over a range starting from a high concentration at or near the clinical Cmax and decreasing in half-log increments. If the clinical Cmax for an agent had not been determined, the highest concentration tested was 10 microM.
NCI60 Cell Culture. NCI60 cell lines were obtained from the NCI Developmental Therapeutics Program Tumor Repository. […] The optimal seeding densities for each of the cell lines at each time point assessed were determined prior to performing the concentration response studies. […]
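Note: spheroids exposed to the agents for seven days before readout.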

| Structure (SMILES) | viability, T/C (compound alone 0.1 µM) | viability, T/C (compound alone 0.316 µM) |
| --- | --- | --- |
| CC(C)NCC(C(=O)N1CCN(c2ncnc3c2C(C)CC3O)CC1)c1ccc(Cl)cc1 (stereo not drawn) | 105, 106, 108, 115, 120, 107, 118, 111, 95.7, 103, 90.4, 113, 104% | 77.5, 82.9, 77.8, 89, 80.7, 82.4, 94.8, 72.1, 81.4, 69.7, 75.9, 84.3, 72.4% |
| CCN1CCN(Cc2ccc(Nc3ncc(F)c(-c4cc(F)c5nc(C)n(C(C)C)c5c4)n3)nc2)CC1 | – | 141, 116, 131 (2×), 126 (2×), 124, 122 (2×), 134, 144, 135, 132% |
